Laboratory results published in PubChem BioAssay AID651820 (National Center for Advancing Translational Sciences (NCATS), 2012).
Where “and” joins values, the source holds several entries; their conditions need not be identical. Identical values can stand only once. About 12,000 (3.5%) of roughly 340,000 compounds were called active. Inconclusive results, whose numbers are uncertain, are shown with a selection of clear calls. Calls come from the whole dose curve; as a rule, active = well fitted inhibition curve with a large enough effect; inconclusive = small, poorly fitted or top-dose-only effect, or another doubt; inactive = no such curve, though single readings can be large or run the other way. Where the call is inconclusive, the potency comes from a doubtful curve fit.

Assay: qHTS Assay for Inhibitors of Hepatitis C Virus (HCV)
Conditions: Huh7.5.1 HCVcc-Cre (HCVcc is cell-culture hepatitis C virus) infection, luciferase reporter, 44 h; series mostly up to 41.8 µM
Outline: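 HCVcc-Cre virus at an moi near 0.5 was added right after compound to cells cultured 4 h from seeding (1,000 cells/well). Luciferase activity was determined 44 h later, 15 min after substrate addition at RT.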
Potency is the fitted concentration of half-maximal effect; tags give direction and shape of the fitted curve.

Structure (SMILES)	Potency
COc1ccc(C(=O)c2cc([N+](=O)[O-])ccc2N2CCCC2)cc1	inconclusive: 22.4 µM [inhibitor, partial curve]
O=C(Nc1cc(Cl)ccc1O)c1snnc1-c1ccccc1	active: 17.8 µM
COc1cccc(CNC(=O)CN2C(=O)CSc3ccc(S(=O)(=O)N4CCOCC4)cc32)c1	inactive
COc1ccc(CCNC(=O)C(=O)NCC2CCCN2S(=O)(=O)c2ccccc2)cc1OC (configuration not stated)	inconclusive: 0.891 µM [inhibitor, partial curve, poor fit]
O=C(COC(=O)c1ccc(O)cc1)Nc1cccc(S(=O)(=O)N2CCCCC2)c1	inconclusive: 7.94 µM [inhibitor, partial curve, poor fit]
Cc1nc(NC(=O)c2ccc(Cl)cc2)sc1Cc1ccc2c(c1)OCO2	inconclusive: 5.01 µM [inhibitor, partial curve]
Cc1cc(=O)c2ccccc2n1Cc1ccccc1	active: 12.6 µM
Cc1nn(C)cc1/C=N\NC(=O)c1csc2c1CCCC2	inactive
C#CCOC(=O)c1ccccc1C(=O)N(CC)CC	inconclusive: 3.55 µM [inhibitor, single point]
COC(=O)Cn1cnc2c(cnn2-c2ccc(C)cc2)c1=O	inactive
Cc1ccc2c(c1)C(=C(C#N)C#N)CCN2	inconclusive: 31.6 µM [inhibitor, single point]
NS(=O)(=O)c1ccc(NC(=O)/C=C/c2cccc(Cl)c2)cc1	active: 11.2 µM
Cc1noc(C)c1NC(=O)Nc1cccc2c1O[C@H](CN(C)S(=O)(=O)c1c(C)noc1C)[C@@H](C)CN([C@H](C)CO)C2=O	inactive
Clc1ccc(OCCCN2CCCCC2)c(Br)c1	inconclusive: 10 µM [inhibitor, partial curve]
Cc1ccccc1CS(=O)(=O)Cc1ccc(C(=O)NC2CCCCC2)o1	inactive
CCCOC(=O)c1ccc(NC(=O)CSC2=Nc3ccccc3C3CC=NN23)cc1 (configuration not stated)	inactive
COc1ccc(S(=O)(=O)N2CCOCC2)cc1NC(=O)CSc1cc(C)ccc1C	inconclusive: 31.6 µM [inhibitor, single point]
C/C(=N\NC(=O)c1cc2ccccc2cc1O)c1ccccn1	active: 3.16 µM
O=C1/C(=C\c2ccccc2)CCc2c1[nH]c1ccccc21	inconclusive: 31.6 µM [inhibitor, single point]
Cc1ccc(C)c(N(C(=O)Cn2nnc3ccccc32)C(C(=O)NC(C)(C)C)c2ccsc2)c1 (configuration not stated)	inconclusive: 31.6 µM [inhibitor, single point]
N#Cc1nc(-c2ccccc2)oc1N1CCCCC1	inactive
Nc1c(S(=O)(=O)c2ccccc2)c2nc3ccccc3nc2n1/N=C/c1cccc(O)c1	active: 14.1 µM
O=C(NCCCN1CCCC1)c1ccc2c(c1)N(Cc1ccc(F)cc1)C(=O)c1ccccc1S2=O (configuration not stated)	inconclusive: 22.4 µM [inhibitor, single point]
c1cc(-c2nnn(CCOCCn3nnc(-c4ccncc4)n3)n2)ccn1	inactive

Structure (SMILES)	Potency
COc1ccc2c(c1)OCC1=C2CCC2(C)C(=O)CC=C12 (configuration not stated)	inconclusive: 31.6 µM [inhibitor, single point]
Cc1ccc(O)c(NC(=O)C2CC(c3c(F)cccc3Cl)=NO2)c1 (configuration not stated)	inactive
CC(=O)C1=C(C)Nc2ncnn2C1c1ccccc1OCc1ccccc1 (configuration not stated)	inconclusive: 0.1 µM [inhibitor, full curve]
c1ccc2sc(NC3=NCN(C4CCCCCC4)CN3)nc2c1	inconclusive: 0.316 µM [inhibitor, full curve, poor fit]
O=C(CCS(=O)(=O)c1ccc2c(c1)NC(=O)CS2)NCCc1ccc(Cl)cc1	inactive
CCN1C(=O)/C(=C2/Sc3ccc(OC)cc3N2C)SC1=Nc1ccc(OC)cc1	inactive
COCCN(C(=O)c1ccccc1Oc1ccccc1)c1c(N)n(CC(C)C)c(=O)[nH]c1=O	inactive
CN(C)c1cccc(C(=O)OCC(=O)Nc2ccccc2-c2ccccc2)c1	inconclusive: 10 µM [inhibitor, partial curve]
CC(=O)c1c(C)n([O-])c2cc(F)c(F)cc2[n+]1=O	inconclusive: 22.4 µM [inhibitor, single point]
CC(OC(=O)C1CCCC1)C(=O)Nc1ccc(C(N)=O)cc1 (configuration not stated)	inconclusive: 0.501 µM [inhibitor, partial curve, poor fit]
FC(F)(F)Sc1ccc(NC(=S)NCc2ccccc2)cc1	inconclusive: 22.4 µM [inhibitor, single point]
COc1cc(/C=N\N=C2/SC(CC(=O)O)C(=O)N2c2ccc(O)cc2)ccc1O (configuration not stated)	inactive
C1CCC(C(CC2CCCCN2)C2CCCCC2)CC1 (configuration not stated)	inconclusive: 2 µM [inhibitor, partial curve] and inconclusive: 15.8 µM [inhibitor, single point]
C/C(=N\NC(=O)CN1CCCCC1)c1ccccc1O	inconclusive: 12.6 µM [inhibitor, partial curve]
O=C(CCNc1ccc(F)cc1)c1ccco1	inconclusive: 10 µM [inhibitor, partial curve]
NC(=O)c1ccc(NC(=O)c2cc(S(=O)(=O)N3CCCCC3)ccc2N2CCOCC2)cc1	inactive
Cn1c(=O)[nH]c(=O)c2c1nc(N1CCN(CCO)CC1)n2CCSc1nc2ccccc2s1	inactive
COc1ccc(-c2cc(C(=O)N3CCN(c4cccc(C)c4C)CC3)c3ccccc3n2)cc1OC	inconclusive: 31.6 µM [inhibitor, single point]
CCOC(=O)/C=C1/SCC(=O)N1Cc1ccc(Br)cc1	inconclusive: 22.4 µM [inhibitor, single point]
O=C(COC(=O)c1ccccc1O)Nc1cccc2ccccc12	inactive
CCCN(CCC)c1ccc(/C=C/c2ccc3cc(OCC)ccc3n2)cc1	inconclusive: 31.6 µM [inhibitor, single point]
O=C(CSc1n[nH]c(-c2ccccn2)n1)Nc1ccc(Cl)cc1	active: 5.01 µM
Cc1ccc(O)c(C(=O)c2cnc3c(c2)c(=O)n(C)c(=O)n3C)c1	inconclusive: 35.5 µM [inhibitor, partial curve]
Cc1cccc(NC(=O)CN2C(=O)S/C(=C\c3cc(C)n(C)c3C)C2=O)c1	inconclusive: 6.31 µM [inhibitor, full curve]

Structure (SMILES)	Potency
Cc1cccc(N=C2NN=C(c3c[nH]c4ccccc34)CS2)c1	inconclusive: 14.1 µM [inhibitor, single point]
CCN1CC2=C(OC(N)=C(C#N)C2c2cccs2)/C(=C/c2cccs2)C1 (configuration not stated)	active: 22.4 µM
COC(=O)c1c(NC(=O)c2ccoc2C)sc2c1CCC2	inconclusive: 8.91 µM [inhibitor, partial curve]
CCOC(=O)c1cnn(-c2ncnc3c2oc2ccccc23)c1N	inactive
COC(=O)c1cc(S(=O)(=O)N2CCN(c3cccc(Cl)c3)CC2)c[nH]1	inconclusive: 14.1 µM [inhibitor, single point]
C=CCOc1ccc(Br)cc1CNCC	inconclusive: 10 µM [inhibitor, single point]
CC(=O)Nc1ccccc1OCC(=O)c1cc(C)n(Cc2cccs2)c1C	inconclusive: 562 nM [inhibitor, full curve] and inconclusive: 1.12 µM [inhibitor, full curve]
CN(CC(=O)Nc1ccccc1C(F)(F)F)C(=O)CSc1nnc(-c2ccncc2)n1C	inactive
Clc1ccc2c(N/N=C/c3cccc(Br)c3)ccnc2c1	inconclusive: 22.4 µM [inhibitor, single point]
CCn1c(C)cc(/C=C2\NC(=O)N(Cc3ccc(Cl)cc3)C2=O)c1C	active: 12.6 µM
COc1ccccc1N1CCN(Cc2cc(=O)c(OCC#N)co2)CC1	inactive
CCOCCCn1c(=NC(=O)c2ccc(OC)c(OC)c2)c(C#N)cc2c(=O)n3cccc(C)c3nc21	inactive
CCOC(=O)C1(Cc2cccc(OC)c2)CCN(Cc2ccc(OC)c(OC)c2)CC1	active: 11.2 µM
Cc1cccc(NC(=S)NNC(=O)c2csc3c2CCC(C)C3)c1 (configuration not stated)	inconclusive: 31.6 µM [inhibitor, single point]
CC(C)C[C@H]1CNC(=S)N1CC1CCN(CC2CCCC2)CC1	inconclusive: 6.31 µM [inhibitor, full curve, poor fit]
NC(=S)NN=C1CCC(C2CCCCC2)CC1 (configuration not stated)	inconclusive: 11.2 µM [inhibitor, partial curve]
CN(C)/C=N/C(=S)Nc1ccc(Cl)c(Cl)c1	inactive
CCOC(=O)N1CCC(NC(=O)CN(c2ccc(C(C)C)cc2)S(=O)(=O)c2c(C)nn(C)c2C)CC1	inactive
Cc1cnc(=O)[nH]c1SCc1cccc([N+](=O)[O-])c1	inactive
CCn1c(SCC(=O)Nc2nc(C)c(C)s2)nnc1-c1cccnc1	inconclusive: 31.6 µM [inhibitor, single point]
c1ccc(Cn2nnnc2C(c2cccnc2)N2CCN(c3ccccc3)CC2)cc1 (configuration not stated)	inactive
N#CCC(=O)Nc1ccc(C(=O)OCC(=O)c2c[nH]c3ccccc23)cc1	inconclusive: 31.6 µM [inhibitor, single point]
CCC(=O)Nc1ccc(NC(=O)CSc2nnnn2-c2ccc3c(c2)OCCO3)cc1	inconclusive: 10 µM [inhibitor, partial curve, poor fit]
CC(C)CC(=O)NC(Nc1ccc([N+](=O)[O-])cc1)C(Cl)(Cl)Cl (configuration not stated)	inconclusive: 22.4 µM [inhibitor, partial curve]
